Results as given in the supplement of paper PMC11417369.
This is one part of the list.

system: PfAP2-HC AP2 domain (GST-tagged); test: gcPBM binding intensity (ln(normalized median fluorescence intensity)); higher = stronger DNA binding
In short: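 The binding buffer was 1× PBS containing 1% milk, 0.2 mg/ml BSA, 0.5% salmon testes DNA and 0.03% Triton X-100. In it, GST-tagged P. falciparum DNA-binding domains expressed in E. coli were applied for 1 h to an Agilent 4 × 180k array of primer-extended double-stranded 36-bp intergenic genomic probes plus negative controls. Binding intensity, read with Alexa488 anti-GST antibody and a 488 nm scan, is the highest Masliner-normalised natural-log median intensity across replicate spots of either probe orientation.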

Which “gcPBM binding intensity (ln)” value does the source give for “TTATGTATTTTAAATGGTTTTATTATAAAGTTTAAT [CACACA_negctrl_site1470]” here?
Its value is 9.5.

“TAAAAATTCAATTGCACACGCACATATTTTAATAAG [CACACA_site2014]” was tested. Which “gcPBM binding intensity (ln)” value did it give?
Its value is 9.68.

With “AATATAATAATAAAAACACACACGTTGATTGTATTA [CACACA_site2381]” as the sequence, how does the “gcPBM binding intensity (ln)” value read?
The value was 9.98.

Which “gcPBM binding intensity (ln)” value does the source give for “CGTATGCAAGGAACCACACACACACCCATAAATGTA [CACACA_site749]” here?
The value was 10.2.

Which “gcPBM binding intensity (ln)” value does the source give for “AAAAAATAGACATATACACACATATGTATTTATAAT [CACACA_site5225]” here?
The value was 10.2.

For “TTAAAAATAAAAAATACACACTCTAGTCCATGTAAC [CACACA_site3640]”, which “gcPBM binding intensity (ln)” value is on record?
The value was 10.1.

For ATTTCATATAGTGTAGTGCAATTTTAAGCATCAAGG, which “gcPBM binding intensity (ln)” value is on record?
Its value is 9.68.

With “CCTATAATAAATAATACACACATATTGTAAATATAT [CACACA_site7496]” as the sequence, how does the “gcPBM binding intensity (ln)” value read?
The value was 9.92.

With “ATGTCATTATATACATGTACGCATATCTGTTTATCC [XGTACX_site3947]” as the sequence, how does the “gcPBM binding intensity (ln)” value read?
The value was 9.85.

For “TTTTTTTTTATAAGGTGTACGTAAAATGTGTAGGTC [XGTACX_site3585]”, which “gcPBM binding intensity (ln)” value is on record?
The value was 9.54.

How did the “gcPBM binding intensity (ln)” value turn out when “TCACATATTATCTTTACACACTATATATAAGTTTTA [CACACA_site2790]” was run?
Its value is 9.78.

For “TCATGTTTTACAAAAACACACAAATGAATATAAACC [CACACA_site1161]”, which “gcPBM binding intensity (ln)” value is on record?
Its value is 9.82.

“TGTACATAAATCTAATTATTATATGTGTATATATAT [CACACA_negctrl_site1582]” was tested. Which “gcPBM binding intensity (ln)” value did it give?
The value was 9.62.

Which “gcPBM binding intensity (ln)” value does the source give for “TTAAGATAGCAAATATGTACACATTTGTAAAATAAA [XGTACX_site4837]” here?
The value was 9.85.

How did the “gcPBM binding intensity (ln)” value turn out when “AAGGAGCCTATGAACACACACATGTACCTATATTAA [CACACA_site7838]” was run?
The value was 9.94.

How did the “gcPBM binding intensity (ln)” value turn out when “AGAATGAAATAATATACACACAAAGGAAAAATGTAA [CACACA_site3911]” was run?
The value was 9.98.

Which “gcPBM binding intensity (ln)” value does the source give for “ATACGTATTTATTTCACACACGTTAAAAAAATAAAA [CACACA_site6027]” here?
The value was 9.75.

“TAAGTGCTTTTCAACTGTACCTTCCATTTATTTATT [XGTACX_site8589]” was tested. Which “gcPBM binding intensity (ln)” value did it give?
Its value is 9.8.

For “TCTTGACTAAATATATGTACATATATTTTAATAATA [XGTACX_site701]”, which “gcPBM binding intensity (ln)” value is on record?
Its value is 9.37.

“ACTACATAATATTTACGTACCTAAAAAATTCTTATA [XGTACX_site509]” was tested. Which “gcPBM binding intensity (ln)” value did it give?
The value was 9.48.

With “TTCTTATTTTATATTTCACACATTTTTACTATACTT [CACACA_site5817]” as the sequence, how does the “gcPBM binding intensity (ln)” value read?
Its value is 9.98.

For “GTATTCAAAAGTGAAACATGCAATAATATATATATA [TGCATGCA_site617]”, which “gcPBM binding intensity (ln)” value is on record?
Its value is 9.63.

“AAAAAAAAAAAAAATACACACGTGAATGTATTGTTT [CACACA_site4856]” was tested. Which “gcPBM binding intensity (ln)” value did it give?
The value was 9.74.

“TAATATCATTTAGACACACACTCTTACAATATGTAA [CACACA_site5434]” was tested. Which “gcPBM binding intensity (ln)” value did it give?
The value was 10.1.

For “AGTTCGAATATATAAAGTACATAATTATATATTTGC [XGTACX_site2604]”, which “gcPBM binding intensity (ln)” value is on record?
The value was 9.61.

Which “gcPBM binding intensity (ln)” value does the source give for “TCTATTAACTGATGTGCATGTTATAACCTAGAAGTA [TGCATGCA_site359]” here?
Its value is 9.49.

Which “gcPBM binding intensity (ln)” value does the source give for “AAAAATCGATACAAGCGTACAAAATAAAATAAAAAT [XGTACX_site5546]” here?
The value was 9.83.

“TTACACATATTATATATATATAAAAAAAAAAAATAT [CACACA_negctrl_site1684]” was tested. Which “gcPBM binding intensity (ln)” value did it give?
The value was 9.69.

How did the “gcPBM binding intensity (ln)” value turn out when “TAAATTGAGTATATTACACACATATAAATATATTAT [CACACA_site4027]” was run?
The value was 9.77.

How did the “gcPBM binding intensity (ln)” value turn out when “TATATATATATATGTATATATGTATATCTATATTTA [CACACA_negctrl_site131]” was run?
Its value is 9.57.

“TCTTATCCTACTTTTATTTTTACTTTTTTTTCTTAT [CACACA_negctrl_site111]” was tested. Which “gcPBM binding intensity (ln)” value did it give?
Its value is 9.89.

“TGGATTCGTATATGTAGTACTATTTATATGTGATTT [XGTACX_site1581]” was tested. Which “gcPBM binding intensity (ln)” value did it give?
The value was 9.71.

Which “gcPBM binding intensity (ln)” value does the source give for “ATATATATATATATATGTACATAATTAATAATTAGA [XGTACX_site5672]” here?
The value was 9.77.

Which “gcPBM binding intensity (ln)” value does the source give for “AAGTGTATATAAAAATGTACATATTTCGATTTAAAT [XGTACX_site4161]” here?
Its value is 9.72.

“AATATATACCAACATAAATATATATATATATATATA [TGCATGCA_negctrl_site334]” was tested. Which “gcPBM binding intensity (ln)” value did it give?
Its value is 10.2.

Which “gcPBM binding intensity (ln)” value does the source give for “TAATAAATATATAATTGTACTTAAAAGAATATAAAA [XGTACX_site2928]” here?
Its value is 9.34.

Which “gcPBM binding intensity (ln)” value does the source give for “TTAATATTTACAAAATGTACAGATTATTTATTGTTG [XGTACX_site1270]” here?
The value was 9.67.

For “AAATATGTCAAATATACACACATAATAACTAGAATA [CACACA_site7151]”, which “gcPBM binding intensity (ln)” value is on record?
Its value is 10.1.

“AATAATTATAATAAGGGTACGTATCTCACAGGAAAA [XGTACX_site4187]” was tested. Which “gcPBM binding intensity (ln)” value did it give?
Its value is 9.83.

For “TTTTTTAATATTTATACATGCATGCCGATTACTATA [TGCATGCA_site26]”, which “gcPBM binding intensity (ln)” value is on record?
Its value is 9.87.

With “TTAATTTGTAAATAATGTACATATAAATGGAAAGTA [XGTACX_site2743]” as the sequence, how does the “gcPBM binding intensity (ln)” value read?
The value was 9.73.

For “TATTTATTAAAACACACACACACACCGACAAAATAA [CACACA_site4293]”, which “gcPBM binding intensity (ln)” value is on record?
The value was 10.5.

How did the “gcPBM binding intensity (ln)” value turn out when “TAATAAAACATATATACACACATTATGTATACATAT [CACACA_site1703]” was run?
The value was 9.94.

For “ACAATACAAATATATACACACATACATACATACATA [CACACA_site5699]”, which “gcPBM binding intensity (ln)” value is on record?
Its value is 10.4.

Which “gcPBM binding intensity (ln)” value does the source give for “AAAACATTATTCCATACACACCATACTTTTTAATAA [CACACA_site7326]” here?
Its value is 9.85.

“TAAAATATTATCTACGCACACATTAAAATAAAAAAA [CACACA_site3709]” was tested. Which “gcPBM binding intensity (ln)” value did it give?
The value was 9.84.

Which “gcPBM binding intensity (ln)” value does the source give for “CATTTGCACACGCACACACACATAAAAAGAAAAATA [CACACA_site6297]” here?
The value was 11.1.

How did the “gcPBM binding intensity (ln)” value turn out when “ATAAAGAAAAGGAACACACAAATATGTAAATATGTA [CACACA_site6356]” was run?
The value was 10.1.

For “TTACACATAAATACCATATAAATATAATGCATATCT [CACACA_negctrl_site1731]”, which “gcPBM binding intensity (ln)” value is on record?
Its value is 9.66.

With “AATAATAAACACAATCAAATAAAATATGAAATATAA [GTGCAC_negctrl_site307]” as the sequence, how does the “gcPBM binding intensity (ln)” value read?
Its value is 9.94.

How did the “gcPBM binding intensity (ln)” value turn out when “CCCTGAGCACTTTCGTGTACTAATAGTAACAATAAT [XGTACX_site1418]” was run?
Its value is 9.52.

Which “gcPBM binding intensity (ln)” value does the source give for “AAATGTTGAAATGATACACACATATAAATATAAATA [CACACA_site7229]” here?
The value was 9.86.

With “AAACAAATGTATATGTGTACTTATTTTTTTGTATGT [XGTACX_site7134]” as the sequence, how does the “gcPBM binding intensity (ln)” value read?
Its value is 9.66.

How did the “gcPBM binding intensity (ln)” value turn out when “ATCAGTCGAGATGACAGTACACAGTAGCCAGGAAAT [XGTACX_site4932]” was run?
The value was 9.64.

“TATGTAGATAAATAAGCACACACCAAACATATAAAA [CACACA_site1182]” was tested. Which “gcPBM binding intensity (ln)” value did it give?
Its value is 10.3.

With “TATATATATTTAAAAAGTACAAAAAAAAAAAATGAA [XGTACX_site374]” as the sequence, how does the “gcPBM binding intensity (ln)” value read?
The value was 9.72.
